The list shows a part of the results. The list includes weakly bound sequences.

This assay deals with T1, MBP-FoxP3dN (UniProt Q99JB6).
T1 sequence: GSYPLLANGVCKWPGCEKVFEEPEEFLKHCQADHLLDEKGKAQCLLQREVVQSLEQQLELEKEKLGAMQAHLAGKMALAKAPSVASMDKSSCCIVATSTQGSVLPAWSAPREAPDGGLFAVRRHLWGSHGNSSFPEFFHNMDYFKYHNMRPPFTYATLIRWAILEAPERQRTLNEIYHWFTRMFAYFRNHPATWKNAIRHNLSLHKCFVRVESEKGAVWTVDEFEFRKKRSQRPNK
The experiment in a line: PD-seq (MBP pull-down with sequencing). To be noted: 20 mM Tris-HCl pH 7.5, 100 mM NaCl, 1.5 mM MgCl2, 0.4 uM protein, 0.1 uM dsDNA library, 30 min, room temperature, amylose pull-down; high values mean tight binding; double strand, one strand shown.
Take “GATGATTGTTCTCCCAGCTGATGAATTCAGAGCTTCGAGTAAACAAATTTTCCTAATCTTTCTGTTCAAGCGCCATCTAC”: the binding signal (RPM ratio (pull-down/input)) is 0.247. In the case of “GATGATTGTTCTCCCAGCTGATGAATTTGGACACTCGAGTAAACAAATTTTCCTAATCTTTCTGTTCAAGCGCCATCTAC” it was 1.45. In the case of “GATGATTGTTCTCCCAGCTGATGAATTCCAACCCTCGAGTAAACAAATTTTCCTAATCTTTCTGTTCAAGCGCCATCTAC” it was 0.236; in that of “GATGATTGTTCTCCCAGCTGATGAATTTGACCTGTCGAGTAAACAAATTTTCCTAATCTTTCTGTTCAAGCGCCATCTAC”, 0.532; in that of “GATGATTGTTCTCCCAGCTGATGAATTCACGTGATCGAGTAAACAAATTTTCCTAATCTTTCTGTTCAAGCGCCATCTAC”, 0.356. In the case of “GATGATTGTTCTCCCAGCTGATGAATTCTCTAATTCGAGTAAACAAATTTTCCTAATCTTTCTGTTCAAGCGCCATCTAC”, the binding signal (RPM ratio (pull-down/input)) was 0.248.

In the case of “GATGATTGTTCTCCCAGCTGATGAATTGTCTTCCTCGAGTAAACAAATTTTCCTAATCTTTCTGTTCAAGCGCCATCTAC”, the binding signal (RPM ratio (pull-down/input)) was 0.391. The figure for “GATGATTGTTCTCCCAGCTGATGAATTCAATTGTTCGAGTAAACAAATTTTCCTAATCTTTCTGTTCAAGCGCCATCTAC” is 3.36; for “GATGATTGTTCTCCCAGCTGATGAATTCATGAAATCGAGTAAACAAATTTTCCTAATCTTTCTGTTCAAGCGCCATCTAC” it is 0.289; for “GATGATTGTTCTCCCAGCTGATGAATTGGCCATGTCGAGTAAACAAATTTTCCTAATCTTTCTGTTCAAGCGCCATCTAC” it is 0.522.

As for “GATGATTGTTCTCCCAGCTGATGAATTGTTGACTTCGAGTAAACAAATTTTCCTAATCTTTCTGTTCAAGCGCCATCTAC”, the binding signal (RPM ratio (pull-down/input)) turned out to be 4.19. On to “GATGATTGTTCTCCCAGCTGATGAATTCACTAACTCGAGTAAACAAATTTTCCTAATCTTTCTGTTCAAGCGCCATCTAC”, for which the binding signal (RPM ratio (pull-down/input)) came out at 0.304.

On to “GATGATTGTTCTCCCAGCTGATGAATTCTTTGTCTCGAGTAAACAAATTTTCCTAATCTTTCTGTTCAAGCGCCATCTAC”, for which the binding signal (RPM ratio (pull-down/input)) amounted to 0.413. On to “GATGATTGTTCTCCCAGCTGATGAATTAATGAAGTCGAGTAAACAAATTTTCCTAATCTTTCTGTTCAAGCGCCATCTAC”, for which the binding signal (RPM ratio (pull-down/input)) was determined as 0.213. In the case of “GATGATTGTTCTCCCAGCTGATGAATTTTCGGAATCGAGTAAACAAATTTTCCTAATCTTTCTGTTCAAGCGCCATCTAC” it was 0.225; in that of “GATGATTGTTCTCCCAGCTGATGAATTCGTCGATTCGAGTAAACAAATTTTCCTAATCTTTCTGTTCAAGCGCCATCTAC”, 0.371; in that of “GATGATTGTTCTCCCAGCTGATGAATTTTGAACGTCGAGTAAACAAATTTTCCTAATCTTTCTGTTCAAGCGCCATCTAC”, 0.378. In the case of “GATGATTGTTCTCCCAGCTGATGAATTGAATACTTCGAGTAAACAAATTTTCCTAATCTTTCTGTTCAAGCGCCATCTAC” it was 0.488; in that of “GATGATTGTTCTCCCAGCTGATGAATTGAGTCAGTCGAGTAAACAAATTTTCCTAATCTTTCTGTTCAAGCGCCATCTAC”, 0.366.

In the case of “GATGATTGTTCTCCCAGCTGATGAATTATACATATCGAGTAAACAAATTTTCCTAATCTTTCTGTTCAAGCGCCATCTAC”, the binding signal (RPM ratio (pull-down/input)) was found to be 0.795. In the case of “GATGATTGTTCTCCCAGCTGATGAATTACTGGGCTCGAGTAAACAAATTTTCCTAATCTTTCTGTTCAAGCGCCATCTAC” it was 0.26; in that of “GATGATTGTTCTCCCAGCTGATGAATTTGTCTTATCGAGTAAACAAATTTTCCTAATCTTTCTGTTCAAGCGCCATCTAC”, 3.64. In the case of “GATGATTGTTCTCCCAGCTGATGAATTTTAAGCTTCGAGTAAACAAATTTTCCTAATCTTTCTGTTCAAGCGCCATCTAC” it was 0.253; in that of “GATGATTGTTCTCCCAGCTGATGAATTAACTAACTCGAGTAAACAAATTTTCCTAATCTTTCTGTTCAAGCGCCATCTAC”, 0.278. In the case of “GATGATTGTTCTCCCAGCTGATGAATTGAATGGATCGAGTAAACAAATTTTCCTAATCTTTCTGTTCAAGCGCCATCTAC” it was 0.298; in that of “GATGATTGTTCTCCCAGCTGATGAATTGGCGCGTTCGAGTAAACAAATTTTCCTAATCTTTCTGTTCAAGCGCCATCTAC”, 1.44.

For “GATGATTGTTCTCCCAGCTGATGAATTCGTTCAGTCGAGTAAACAAATTTTCCTAATCTTTCTGTTCAAGCGCCATCTAC”, the binding signal (RPM ratio (pull-down/input)) amounted to 0.271. As for “GATGATTGTTCTCCCAGCTGATGAATTGGCTCCTTCGAGTAAACAAATTTTCCTAATCTTTCTGTTCAAGCGCCATCTAC”, the binding signal (RPM ratio (pull-down/input)) stood at 0.297. Turning to “GATGATTGTTCTCCCAGCTGATGAATTTGAGGTATCGAGTAAACAAATTTTCCTAATCTTTCTGTTCAAGCGCCATCTAC”, the binding signal (RPM ratio (pull-down/input)) was determined as 0.815. In the case of “GATGATTGTTCTCCCAGCTGATGAATTCTATCCATCGAGTAAACAAATTTTCCTAATCTTTCTGTTCAAGCGCCATCTAC” it was 0.458; in that of “GATGATTGTTCTCCCAGCTGATGAATTGTGTCAATCGAGTAAACAAATTTTCCTAATCTTTCTGTTCAAGCGCCATCTAC”, 1.11. In the case of “GATGATTGTTCTCCCAGCTGATGAATTCCATCAATCGAGTAAACAAATTTTCCTAATCTTTCTGTTCAAGCGCCATCTAC” it was 0.327.

For “GATGATTGTTCTCCCAGCTGATGAATTGTTGGTCTCGAGTAAACAAATTTTCCTAATCTTTCTGTTCAAGCGCCATCTAC”, the binding signal (RPM ratio (pull-down/input)) is 4.36.

As to “GATGATTGTTCTCCCAGCTGATGAATTCGCTATGTCGAGTAAACAAATTTTCCTAATCTTTCTGTTCAAGCGCCATCTAC”, the binding signal (RPM ratio (pull-down/input)) was 1.16.

With “GATGATTGTTCTCCCAGCTGATGAATTCACGCAGTCGAGTAAACAAATTTTCCTAATCTTTCTGTTCAAGCGCCATCTAC”, the binding signal (RPM ratio (pull-down/input)) is 0.848. The figure for “GATGATTGTTCTCCCAGCTGATGAATTTGCCGGTTCGAGTAAACAAATTTTCCTAATCTTTCTGTTCAAGCGCCATCTAC” is 0.543; for “GATGATTGTTCTCCCAGCTGATGAATTATGTGATTCGAGTAAACAAATTTTCCTAATCTTTCTGTTCAAGCGCCATCTAC” it is 4.32. In the case of “GATGATTGTTCTCCCAGCTGATGAATTCCATGCGTCGAGTAAACAAATTTTCCTAATCTTTCTGTTCAAGCGCCATCTAC” it was 0.688; in that of “GATGATTGTTCTCCCAGCTGATGAATTCATCGCGTCGAGTAAACAAATTTTCCTAATCTTTCTGTTCAAGCGCCATCTAC”, 0.63; in that of “GATGATTGTTCTCCCAGCTGATGAATTGGTGGAGTCGAGTAAACAAATTTTCCTAATCTTTCTGTTCAAGCGCCATCTAC”, 0.38. With “GATGATTGTTCTCCCAGCTGATGAATTGCTGGGCTCGAGTAAACAAATTTTCCTAATCTTTCTGTTCAAGCGCCATCTAC”, the binding signal (RPM ratio (pull-down/input)) is 0.399. The figure for “GATGATTGTTCTCCCAGCTGATGAATTTGGGAGCTCGAGTAAACAAATTTTCCTAATCTTTCTGTTCAAGCGCCATCTAC” is 0.275; for “GATGATTGTTCTCCCAGCTGATGAATTTAGGTATTCGAGTAAACAAATTTTCCTAATCTTTCTGTTCAAGCGCCATCTAC” it is 1.37. On to “GATGATTGTTCTCCCAGCTGATGAATTCGAAGTATCGAGTAAACAAATTTTCCTAATCTTTCTGTTCAAGCGCCATCTAC”, for which the binding signal (RPM ratio (pull-down/input)) came to 0.441. In the case of “GATGATTGTTCTCCCAGCTGATGAATTGGCAAAATCGAGTAAACAAATTTTCCTAATCTTTCTGTTCAAGCGCCATCTAC” it was 0.254; in that of “GATGATTGTTCTCCCAGCTGATGAATTAAGCATCTCGAGTAAACAAATTTTCCTAATCTTTCTGTTCAAGCGCCATCTAC”, 6.6. The figure for “GATGATTGTTCTCCCAGCTGATGAATTGGCTCGGTCGAGTAAACAAATTTTCCTAATCTTTCTGTTCAAGCGCCATCTAC” is 0.268; for “GATGATTGTTCTCCCAGCTGATGAATTGATAACGTCGAGTAAACAAATTTTCCTAATCTTTCTGTTCAAGCGCCATCTAC” it is 0.445; for “GATGATTGTTCTCCCAGCTGATGAATTCCGTCGTTCGAGTAAACAAATTTTCCTAATCTTTCTGTTCAAGCGCCATCTAC” it is 0.747.

With “GATGATTGTTCTCCCAGCTGATGAATTCCTTCTCTCGAGTAAACAAATTTTCCTAATCTTTCTGTTCAAGCGCCATCTAC”, the binding signal (RPM ratio (pull-down/input)) came out at 0.225. Regarding “GATGATTGTTCTCCCAGCTGATGAATTCACTGACTCGAGTAAACAAATTTTCCTAATCTTTCTGTTCAAGCGCCATCTAC”, the binding signal (RPM ratio (pull-down/input)) came to 0.233. In the case of “GATGATTGTTCTCCCAGCTGATGAATTCGGATGTTCGAGTAAACAAATTTTCCTAATCTTTCTGTTCAAGCGCCATCTAC” it was 0.89; in that of “GATGATTGTTCTCCCAGCTGATGAATTCGTGCCATCGAGTAAACAAATTTTCCTAATCTTTCTGTTCAAGCGCCATCTAC”, 2.18. Turning to “GATGATTGTTCTCCCAGCTGATGAATTGCAACTATCGAGTAAACAAATTTTCCTAATCTTTCTGTTCAAGCGCCATCTAC”, the binding signal (RPM ratio (pull-down/input)) turned out to be 4.55. On to “GATGATTGTTCTCCCAGCTGATGAATTGGCTTGGTCGAGTAAACAAATTTTCCTAATCTTTCTGTTCAAGCGCCATCTAC”, for which the binding signal (RPM ratio (pull-down/input)) was determined as 1.08. In the case of “GATGATTGTTCTCCCAGCTGATGAATTACTAACATCGAGTAAACAAATTTTCCTAATCTTTCTGTTCAAGCGCCATCTAC” it was 2.2. In the case of “GATGATTGTTCTCCCAGCTGATGAATTCAAAGCATCGAGTAAACAAATTTTCCTAATCTTTCTGTTCAAGCGCCATCTAC” it was 0.742. In the case of “GATGATTGTTCTCCCAGCTGATGAATTTCAGGTATCGAGTAAACAAATTTTCCTAATCTTTCTGTTCAAGCGCCATCTAC”, the binding signal (RPM ratio (pull-down/input)) is 0.479. The figure for “GATGATTGTTCTCCCAGCTGATGAATTTCACAAGTCGAGTAAACAAATTTTCCTAATCTTTCTGTTCAAGCGCCATCTAC” is 0.232; for “GATGATTGTTCTCCCAGCTGATGAATTGTCGGTTTCGAGTAAACAAATTTTCCTAATCTTTCTGTTCAAGCGCCATCTAC” it is 0.597; for “GATGATTGTTCTCCCAGCTGATGAATTTGAAGGGTCGAGTAAACAAATTTTCCTAATCTTTCTGTTCAAGCGCCATCTAC” it is 0.388. The figure for “GATGATTGTTCTCCCAGCTGATGAATTCTGTCCATCGAGTAAACAAATTTTCCTAATCTTTCTGTTCAAGCGCCATCTAC” is 0.788.

Consider “GATGATTGTTCTCCCAGCTGATGAATTTCCGTGTTCGAGTAAACAAATTTTCCTAATCTTTCTGTTCAAGCGCCATCTAC”, for which the binding signal (RPM ratio (pull-down/input)) was 0.509.
